Hit rate of the full screen: of about 110,000 compounds, about 230 (0.21%) showed an effect of 50% or more. Some of the results follow.
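Also: 30 min substrate incubation versus DMSO and 10 µM JCP410 controls.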

For the experiment, the target named is DPAP1 (Plasmodium falciparum, UniProt Q8IIJ9). As to the kind of experiment: primary screen, percent inhibition; read by cleavage of a fluorogenic dipeptide substrate; higher = more effect of the substance. On the set-up: species or system P. falciparum D10 trophozoite lysates; single well.
Chain of DPAP1 (Q8IIJ9 whole entry, looked up): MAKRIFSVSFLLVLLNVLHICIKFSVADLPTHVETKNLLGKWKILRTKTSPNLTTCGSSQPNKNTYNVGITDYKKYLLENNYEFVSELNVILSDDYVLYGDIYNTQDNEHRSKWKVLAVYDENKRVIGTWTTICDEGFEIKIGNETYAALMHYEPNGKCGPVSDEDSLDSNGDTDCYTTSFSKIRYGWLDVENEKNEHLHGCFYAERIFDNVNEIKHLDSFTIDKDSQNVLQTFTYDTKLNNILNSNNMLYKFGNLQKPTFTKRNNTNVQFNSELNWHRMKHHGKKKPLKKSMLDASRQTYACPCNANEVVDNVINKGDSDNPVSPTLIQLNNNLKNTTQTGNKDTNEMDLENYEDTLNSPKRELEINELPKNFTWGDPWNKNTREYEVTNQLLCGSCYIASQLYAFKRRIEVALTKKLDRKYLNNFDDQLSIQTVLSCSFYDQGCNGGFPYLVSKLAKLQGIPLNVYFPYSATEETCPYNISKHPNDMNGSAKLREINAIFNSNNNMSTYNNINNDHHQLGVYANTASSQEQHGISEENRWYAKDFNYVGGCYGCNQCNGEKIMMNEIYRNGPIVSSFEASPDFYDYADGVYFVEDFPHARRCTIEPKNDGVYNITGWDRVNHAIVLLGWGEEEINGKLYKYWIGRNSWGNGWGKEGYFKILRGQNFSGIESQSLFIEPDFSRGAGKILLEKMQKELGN
With `COc1ccc(C2Nc3ccccc3N=C3CC(c4ccc(OC)c(OC)c4)CC(O)=C32)cc1O` (stereo not shown), the “% Inhibition @ 10 uM” value is 2.38%.
In the case of `CC1CN(C(=O)c2cccc(F)c2)C(C)CN1C(=O)c1cccc(F)c1` (stereo not shown) it was 0.795%.
In the case of `Cc1ccc(S(=O)(=O)N(CC(=O)N2CCC(C)CC2)c2ccc(C)cc2C)cc1`, the “% Inhibition @ 10 uM” value is reported as 6.01%.
In the case of `O=C(Cn1c2ccccc2c2cnnc(O)c21)N1CCOCC1` it was -3.79%; in that of `CCOc1cc(/C=C(\C#N)C(=O)NCc2cccnc2)ccc1O`, 14.8%; in that of `CCOC(=O)N1CCN(Cc2cc(F)ccc2F)CC1`, -1.41%.
The value for `O=C(Nc1ccc2ccccc2c1)c1cccc(Br)c1` was 1.91%; that for `O=C1C=CC(=O)N1c1cc([N+](=O)[O-])ccc1F` was -4.04%.
As to `CCOc1ccc(CC(=O)Nc2c(C(C)=O)oc3ccc(Cl)cc23)cc1OCC`, the “% Inhibition @ 10 uM” value is on record as -0.413%.
With `O=C(O)c1cccc(NC(=O)c2ccc3c(c2)C(=O)N(C2CCCCC2)C3=O)c1`, the “% Inhibition @ 10 uM” value is given as 21.1%.
The value for `COc1ccc(C2C(C#N)=C(N)Oc3[nH]nc(C)c32)cc1CSc1nc2ccccc2o1` (stereo not shown) was 12.5%.
For the compound `CC(C)(C)c1ccc(-c2nc(N3CCCC3)c3ccccc3n2)cc1`, the “% Inhibition @ 10 uM” value is on record as -1.25%.
The value for `O=C(NC1CCCC1)C1COc2ccccc2O1` (stereo not shown) was -1.59%; that for `NC(=O)c1c(NC(=O)c2ccc(Cl)cc2)sc2c1CCCCC2` was 15.7%; that for `C=CCNC(=O)c1c([N+](=O)[O-])cnn1C` was 0.989%.
Consider `COC(=O)c1c(C)nn(-c2ccccc2)c1-n1cccc1`, for which the “% Inhibition @ 10 uM” value is -5.37%.
In the case of `O=C(Nc1c2c(nc3c1CCC3)CCCC2)C1CCCCC1` it was -6.44%; in that of `COC(=O)/C(C#N)=C/c1c(Oc2ccccc2)nc2ccccn2c1=O`, -5.11%; in that of `Cc1c(C)n(C)c2ccc(C(=O)NCc3ccc(OC(C)C)cc3)cc12`, 4.44%.
The value for `CCOC(=O)N1CCN(c2c(NCCN(C)Cc3ccccc3)c(=O)c2=O)CC1` was -3.21%; that for `CCOC(=O)CC(N)c1ccc(Cl)cc1` (stereo not shown) was -5.44%; that for `CSc1ncc(Cl)c(C(=O)Nc2sc3c(c2C(=O)NCc2ccco2)CCCC3)n1` was 0.569%.
The value for `Cc1ccccc1OCC(=O)Nc1cccc(C)c1C` was -0.872%; that for `Cc1ccc(NC(=O)c2ccccc2C(=O)O)cc1F` was -7.34%.
For `CCOc1ccc(CCNCc2c(C(=O)O)n(Cc3ccc(C)cc3)c3cc(C)ccc23)cc1`, the “% Inhibition @ 10 uM” value amounted to 5.43%.
Take `CCN1CCN(C2=NC(=O)/C(=C/c3ccc4c(c3)OCO4)S2)CC1`: the “% Inhibition @ 10 uM” value is reported as -3.74%.
For `Cc1cc2c(c(C)nn2-c2ccccc2)c(=O)o1`, the “% Inhibition @ 10 uM” value came out at 0.219%.
In the case of `CC(C)(C)C(=O)NCc1nc(-c2ccc(Cl)cc2)no1`, the “% Inhibition @ 10 uM” value is listed as 2.14%.
In the case of `COc1ccccc1C1=N/C(=C\c2ccc(C)cc2)C(=O)O1` it was 1.59%; in that of `CCC(C)Cn1c(CNC(=O)c2ccccc2)nc2ccccc21` (stereo not shown), 3.81%; in that of `Cc1ccnc(NC(=O)c2ccc(Cl)cc2Cl)c1`, -7.34%.
In the case of `CN(C)c1nc(NCc2ccccc2)nc(Oc2ccc(O)nn2)n1` it was -2.75%; in that of `CCN(CC)CCCNC(=O)C1CCN(c2nnc(C)c3c(C)n(-c4ccc(OC)cc4)nc23)CC1`, -4.18%.
In the case of `Cc1nc(NC(=O)c2c(-c3ccccc3Cl)noc2C)sc1C` it was -2.22%; in that of `COc1ccc2c(CNCC(C)c3ccccc3)c(C(=O)O)n(Cc3ccc(F)cc3)c2c1` (stereo not shown), 1.8%.
As to `CCOc1ccccc1C1CC(=O)NC(SC)=C1C#N` (stereo not shown), the “% Inhibition @ 10 uM” value is reported as -3.32%.
In the case of `N#Cc1c(O)nc2ccccc2c1O` it was -3.13%.
In the case of `Cc1c(C2C(C#N)=C(N)N(c3nnc(SC(C)C)s3)C3=C2C(=O)CCC3)cnn1C` (stereo not shown) it was -2.19%; in that of `CCc1ccc(Oc2nc3c(C)cccn3c(=O)c2/C=C(\C#N)C(=O)OC)cc1`, 3.63%; in that of `CC(C)N(Cc1ccccc1)C(=O)C1CCN(c2ncnc3c2nc2n3CCCCC2)CC1`, -2.46%.
In the case of `COc1cc(/C=C2/NC(=O)N(c3ccc(Cl)cc3)C2=O)ccc1O` it was -1.12%.
In the case of `COc1ccc(C2CC(=O)c3c([nH]c(C(=O)O)c3C)C2)cc1` (stereo not shown), the “% Inhibition @ 10 uM” value was -0.0508%.
In the case of `CCc1ccccc1NC(=O)Cn1cnc2scc(-c3ccc(OC)cc3)c2c1=O` it was 6.57%; in that of `Cc1ccc(S(=O)(=O)NCC2CCC(C(=O)N3CC(C)CC(C)C3)CC2)cc1` (stereo not shown), -4.53%; in that of `Cc1nn2c(=O)/c(=C/c3ccc(Cl)c(Cl)c3)sc2nc1=O`, -5.2%.
In the case of `Cc1ccc(CCN2CC(C(=O)N3CCC4(CC3)OCCO4)CC2=O)cc1` (stereo not shown) it was 3.24%; in that of `Cc1ccc(-c2cc(NC(=O)c3ccc(OCC(C)C)cc3)on2)cc1`, 1.9%; in that of `Cc1sc(NC(=O)c2cc3nc(-c4cccs4)cc(C(F)(F)F)n3n2)c(C(N)=O)c1C`, 5.44%.
In the case of `CNCC(O)COc1ccc(C)cc1C` (stereo not shown) it was -1.86%; in that of `COc1ccc2c(c1)CC/C(=C\c1ccc(Br)o1)C2=O`, 7.57%.
Take `COc1ccc2cc3cc(C(=O)N4CCC(Cc5ccccc5)CC4)oc3nc2c1`: the “% Inhibition @ 10 uM” value is listed as -3.35%.
In the case of `COc1ccc(OC)c(CNC(=O)Cn2ccc3cc(S(=O)(=O)N4CCCC4)ccc32)c1` it was -2.93%.
In the case of `Nc1c(-c2nc(-c3ccc4c(c3)OCO4)no2)nnn1-c1ccccc1` it was 4.48%.
In the case of `CCOC(=O)C1CCCCN1Cc1ccco1` (stereo not shown) it was -1.86%.
For the compound `Cc1ccccc1-c1nn[nH]n1`, the “% Inhibition @ 10 uM” value was determined as 2%.
In the case of `Fc1ccc(N2CCN(CC3CC4C=CC3C4)CC2)cc1` (stereo not shown) it was -2.95%; in that of `COc1ccccc1C(=O)NC1=NC(=O)CC(c2ccccc2F)N1` (stereo not shown), -2.65%; in that of `O=C(NC1CCCC1)c1csc2c1CCCC2`, -5.05%.
On to `CC1CC(=O)C2=C(C1)OC(N)=C(C#N)C2c1cccc(Cl)c1Cl` (stereo not shown), for which the “% Inhibition @ 10 uM” value was found to be 3.54%.
In the case of `Cc1ccc2c(c1)c(-c1ccccc1)c(-c1ccccc1)n2CCC#N`, the “% Inhibition @ 10 uM” value is reported as -0.582%.
The value for `COc1ccc2cc(C(=O)Nc3ccc(Cl)cc3)sc(=O)c2c1OC` was 1.64%.
The value for `CCOc1ccc(-c2cc(C)n3nc(C(=O)N(C)Cc4ccccc4)cc3n2)cc1` was 0.709%.
In the case of `c1cc(-c2nnn(CCOCCn3nnc(-c4ccncc4)n3)n2)ccn1` it was 2.57%; in that of `O=C1NC(/C=C/c2ccccc2Cl)Nc2sc3c(c21)CCCC3` (stereo not shown), -3.85%.

(Values after article PMC6919601, “Identification of Plasmodium dipeptidyl aminopeptidase allosteric inhibitors by high throughput screening” (PLoS ONE, 2019).)
